# In PubChem BioAssay AID588855 (National Center for Advancing Translational Sciences (NCATS), 2011):
# The campaign covered roughly 410,000 compounds. About 5,000 (1.2%) were called active. The shares of active, inactive and inconclusive entries below differ from those in the screen. Calls come from the whole dose curve; as a rule, active = well fitted inhibition curve with a large enough effect; inconclusive = small, poorly fitted or top-dose-only effect; inactive = no such curve, though single readings can be large or run the other way. Potencies of inconclusive entries are doubtful fits and often do not repeat.
# Test: qHTS for Inhibitors of TGF-b; note: nearly all actives have a fitted effect of over 65% in size
# Conditions: HepG2 CAGA-GFP TGF-b/SMAD3 reporter, GFP fluorescence, 18 h, TGF-beta stimulated, 500 pg/mL final; series mostly up to 46.1 µM; activity, negative = inhibition: at the top concentration
# Method in brief: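 Cell-based qHTS in HEPG2 carrying a CAGA-GFP Smad reporter; compounds added before 500 pg/mL final TGF-beta, 18 h incubation at 37 degrees C, GFP fluorescence quantified per cell by imaging cytometry.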
# % is set by controls: 0 for no effect and ±100 for the full control effect; potency is the fitted concentration of half-maximal effect; tags give direction and shape of the fitted curve.
SMILES,"activity, negative = inhibition",Potency
CNC(=S)N/N=C/c1cn(CCOc2ccc(OC)cc2)c2ccccc12,inactive: 0%,–
COc1ccc(NC(=O)c2cnc(Nc3ccc(C)c(Cl)c3)c3ccccc23)c(OC)c1,–,"inconclusive: 1 µM [inhibitor, partial curve]"
CC(=O)Nc1cccc(NC(=O)CSc2ccc(-c3ccccn3)nn2)c1,inactive: -13.4%,–
COc1ccc2c(c1)C(C)=CC(C)(C)N2S(=O)(=O)c1ccc(Br)cc1,–,"inconclusive: 11.2 µM [inhibitor, partial curve]"
COc1ccc(NC(=O)CSc2nc(-c3ccncc3)nn2CC(=O)N2CCCC2)cc1,–,"inconclusive: 17.8 µM [inhibitor, single point]"
Cc1[nH]ncc1Nc1c(C(C)C)cccc1C(C)C,–,"inconclusive: 20 µM [inhibitor, partial curve, poor fit]"
CC(C)CCNC(=O)NC(=O)CSc1nnc(-c2ccccc2Br)o1,–,"inconclusive: 20 µM [inhibitor, single point]"
O=C(CSc1ncc(-c2ccccc2)n1CC1CCCO1)N1CCCCC1 (stereo not drawn),–,"inconclusive: 20 µM [inhibitor, single point]"
Nc1nc(-c2c(Cl)cccc2Cl)no1,inactive: 26.6%,–
Cc1sc2ncnc(N3CCN(c4ncccn4)CC3)c2c1C,–,"inconclusive: 3.16 µM [inhibitor, single point]"
Cc1ccc(-c2csc(NC(=O)CSc3nc4ccccc4[nH]3)n2)cc1,–,"inconclusive: 35.5 µM [inhibitor, single point]"
CC(=O)c1c(C)[nH]c(C2=NNC(=NC(C)(C)C)SC2)c1C,inactive: -1.87%,–
OC(COCC(F)(F)C(F)(F)C(F)(F)C(F)F)Cn1c2ccc(Cl)cc2c2cc(Cl)ccc21 (stereo not drawn),–,active: 10 µM
CC1CCC(NC(=O)CC(C)(C)Cc2nc3ccccc3c(=O)[nH]2)CC1 (stereo not drawn),inactive: -15.7%,–
CC(C)COc1ccc(C(=O)Nc2ccc(SC(F)F)cc2)cc1,–,"inconclusive: 10 µM [inhibitor, partial curve, poor fit]"
Cc1cc(C)cc(NC(=S)N2CCN(c3ccccn3)CC2)c1,–,"inconclusive: 12.6 µM [inhibitor, single point]"
Cc1ccc(NC(=O)C(=O)NCC(c2ccc3c(c2)OCO3)N2CCOCC2)cc1C (stereo not drawn),inactive: -29.1%,–
O=C(Nc1nc2n(n1)C(c1ccc(Cl)cc1)CC(c1ccc(Cl)cc1)N2)c1ccco1 (stereo not drawn),–,"inconclusive: 35.5 µM [inhibitor, single point]"
CC(NCCS(=O)(=O)c1ccc(Cl)cc1)c1cccc(Cl)c1 (stereo not drawn),–,"inconclusive: 35.5 µM [inhibitor, single point]"
CC(=O)Nc1ccc(S(=O)(=O)NC(C(=O)O)C2=CCC=CC2)cc1 (stereo not drawn),–,"inconclusive: 35.5 µM [inhibitor, partial curve, poor fit]"
Cc1ccc(C(=O)CC(c2cccs2)S(=O)(=O)c2ccc(C)cc2)cc1 (stereo not drawn),–,"inconclusive: 0.112 µM [inhibitor, full curve, poor fit]"
CCOc1ccc(OCC)c(NC(=O)CN2CCC(NC(=O)c3cccc(F)c3)CC2)c1,–,"inconclusive: 0.112 µM [inhibitor, full curve, poor fit]"

SMILES,"activity, negative = inhibition",Potency
COc1ccc(-n2c(Cc3cccn3C)nnc2SCC(=O)N2CCCc3ccccc32)cc1,–,"inconclusive: 10 µM [inhibitor, partial curve]"
COC(=O)c1cc(Cl)ccc1NC(=O)CSc1ncc(S(=O)(=O)c2ccc(Br)cc2)c(=O)[nH]1,–,"inconclusive: 17.8 µM [inhibitor, single point]"
CC(C)CC1Nc2ccc(C(=O)NCCCN3CCCCC3C)cc2NC1=O (stereo not drawn),inactive: 3.97%,–
CCOC(=O)C1=C(CSc2nc(-c3ccccc3)ccc2C#N)OC(N)=C(C#N)C1c1cccnc1 (stereo not drawn),–,"inconclusive: 0.794 µM [inhibitor, full curve, poor fit]"
O=c1c2cc(NC(=S)NCCCN3CCC(Cc4ccccc4)CC3)ccc2nc2n1CCCCC2,–,"inconclusive: 15.8 µM [inhibitor, single point]"
Cc1cc(OCCn2cc(/C(N)=N/O)c3ccccc32)ccc1Cl,–,"inconclusive: 35.5 µM [inhibitor, single point]"
COc1ccc(S(=O)(=O)/N=C2\C=C(Nc3ccc(O)cc3)C(=O)c3ccccc32)cc1,–,active: 0.794 µM
Cc1csc(CNc2ncnc3ccc(-c4cccc(Cl)c4)cc23)c1,–,"inconclusive: 22.4 µM [inhibitor, single point]"
CCC(=O)Nc1ccc(/C(C)=N\NC(=O)c2ccc(OC)cc2)cc1,inactive: 8.16%,–
O=C(NC1CCN(Cc2ccccc2)CC1)c1cccc(S(=O)(=O)Nc2ccc(SC(F)F)cc2)c1,–,active: 11.2 µM
CCN(CC)CCNC(=O)c1ccc(NC(=O)c2cccc(S(=O)(=O)N3CCCCCC3)c2)cc1,–,"inconclusive: 20 µM [inhibitor, partial curve, poor fit]"
O=C(CSc1ccccn1)N1CCN(c2ncc(C(F)(F)F)cc2Cl)CC1,inactive: 4%,–
CC(C)[C@@H]1CC[C@@H](C)C[C@H]1OC(=O)C[n+]1cc(-c2ccc(Cl)cc2)n2c1CCCCC2,–,"inconclusive: 35.5 µM [inhibitor, partial curve, poor fit]"
CCCCn1c(SCC(=O)Nc2ccc(OCC)cc2)nc2ccsc2c1=O,–,"inconclusive: 35.5 µM [inhibitor, single point]"
CN(CC(=O)Nc1cccc(F)c1)C(=O)c1cccc(S(=O)(=O)N2CCN(Cc3ccccc3)CC2)c1,–,"inconclusive: 12.6 µM [inhibitor, partial curve, poor fit]"
CCn1c(SCC(=O)c2ccccc2)nc2c(c1=O)SC(C)C2 (stereo not drawn),–,"inconclusive: 14.1 µM [inhibitor, partial curve]"
CN(c1ccccc1C(=O)NCc1ccccc1Cl)S(=O)(=O)c1ccccc1,inactive: 4.8%,–
Cc1ccc(NS(=O)(=O)c2cc3[nH]c(=O)c(=O)[nH]c3cc2C)cc1N(C)C,inactive: -3.65%,–
Cc1ccc(NC(=O)CCCn2c(=O)c3cccn3c3cccnc32)cc1C,inactive: -23.7%,–
COc1ccc(/C=C/C(=O)NC(=S)N2CCN(c3ccccc3OC)CC2)cc1,inactive: 3.88%,–
CCN1C(=O)[C@H]2[C@@H](c3ccc(-c4ccc(F)cc4)c(OC)c3)N3CCC[C@@]3(C(=O)OC)[C@H]2C1=O,inactive: -22.7%,–
